Laboratory results from the RNAGym collection of RNA variant scans (doi:10.1073/pnas.2313332121).
Variants at the background level are over-represented here.

B1: TPR 5TU (parent)
chain: GGAUCUUCUCGAUCUAACAAAAAAGACAAAUCUGCCACAAAGCUUGAGAGCAUCUUCGGAUGCAGAGGCGGCAGCCUUCGGUGGCGCGAUAGCGCCAACGUUCUCAACUAUGACACGCAAAACGCGUGCUCCGUUGAAUGGAGUUUAUCAUG

Variants of: B1
Test: polymerase ribozyme fitness, log enrichment relative to wild type (log ratio); higher = more active; in vitro selection for triplet polymerase activity
In short: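 Frozen incubation at −7 °C formed the core of a single, triplicate in vitro selection round applied to PCR-built, transcribed mutant libraries of each subunit of a heterodimeric triplet polymerase ribozyme. Extended constructs were gel-excised, captured with streptavidin beads and amplified by RT-PCR, and input and output libraries were Illumina-sequenced with a filter of ≥10 input reads and ≥1 read per output. Fitness is the logarithm of genotype enrichment relative to wild-type enrichment, with inverse-variance-weighted replicate averaging, and the logarithm is base 2.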

Row | Variant | polymerase ribozyme fitness (log ratio)
1 | C35U C54U C63G G80A C93U | ≤ -4.2
2 | C35G G88A C95U U101A G141C | -4.12
3 | C36U C85U A147G A150G | ≤ -4.2
4 | A37C A41G G50C C75G A115G | ≤ -4.2
5 | A37C C76G | ≤ -4.2
6 | A37C C76A | -3.34
7 | C35G A73G C85G | ≤ -4.2
8 | C35U C96A A97U C116U G117A A138C G140U | ≤ -4.2
9 | A37C C54U C96U | -0.249
10 | C36G G46C C57U A64G C87A | ≤ -4.2
11 | C36U C51G C76G G81C A107G G143A | ≤ -4.2
12 | C36G A52G U104G A106G C123G U127G | ≤ -4.2
13 | C35A U102G C116U | ≤ -4.2
14 | C36G C95A | -3.65
15 | C36U U53G G81C C93A | ≤ -4.2
16 | C35U U55A C57G C69U C95G G140C | ≤ -4.2
17 | C35G G62A G74A C79U C95A A120U C125U | ≤ -4.2
18 | C36A C87U | -3.89
19 | C36U U56G A60C U61G C79U C93U C99U G112C U144A A150C | ≤ -4.2
20 | C36U A47G G68C G133C | ≤ -4.2
21 | C36G U53A A73C G88U C95G C96A | ≤ -4.2

Row | Variant | polymerase ribozyme fitness (log ratio)
22 | A37C C43A C69A G92A C105A C116A G141C G143A | ≤ -4.2
23 | C36U C54U C93G U104G | ≤ -4.2
24 | C36U A47U G50U G92A | ≤ -4.2
25 | C36G A119C | ≤ -4.2
26 | C35G G46A G50A C79U G92C C95U A107G C129G G141C | ≤ -4.2
27 | C36U C87G G94U A98G | ≤ -4.2
28 | C36A G68C G88A U101G | ≤ -4.2
29 | C35U U90G A119U U127A C132U G143U A147C | ≤ -4.2
30 | C35G U53A | ≤ -4.2
31 | C35U C75A C85A U139A G143U | ≤ -4.2
32 | A37C A41C A91U A142C | ≤ -4.2
33 | C36U U90G | ≤ -4.2
34 | C36U C51G A107U G128A U139G | ≤ -4.2
35 | C36U A52U | -1.56
36 | C35U G58U G70A U130G C132G | ≤ -4.2
37 | A37C A52C U53A G92A | ≤ -4.2
38 | C36U C93A G117U | -3.25
39 | C35U G46C G84A C96U C108G G124A A142U | ≤ -4.2
40 | C35U U77C C95A U146G | ≤ -4.2
41 | A37C C149G | ≤ -4.2
42 | C36U C57A C93U C114G A121G | ≤ -4.2

Row | Variant | polymerase ribozyme fitness (log ratio)
43 | C35G U55A G74A A89U A115C | ≤ -4.2
44 | C35U A52G | -0.53
45 | C35G C57U G67A C99A A121G G126C | ≤ -4.2
46 | C36G A39U U55A G94U A120U | ≤ -4.2
47 | C36A C51U G68A C85G A97U | ≤ -4.2
48 | A37C C123A G126C A147C | ≤ -4.2
49 | C35U C95G C108U A122G U145A | ≤ -4.2
50 | C36A U45A A73U C96G | ≤ -4.2
51 | C35U A39U U55A C75G U82G C85U C125A | ≤ -4.2
52 | C35G G62C G80A U90C C95A A106G | ≤ -4.2
53 | C36U A89U U90G | ≤ -4.2
54 | C36G A89G A91U A98G C132U | ≤ -4.2
55 | A37C C54G C93A A97U C99U A107G U109A | ≤ -4.2
56 | A37C A60C A73C G88A C96A C105G | ≤ -4.2
57 | C36A G42U G92A A120G A121C A137G A142U | ≤ -4.2
58 | C36U G71A G80U | ≤ -4.2
59 | C35G C75U A91U U148C A150G | ≤ -4.2
60 | C36G G59A A147G | ≤ -4.2
61 | C35G C36G G128U | ≤ -4.2
62 | C36A C93A | ≤ -4.2
63 | C35U A91C | ≤ -4.2

Row | Variant | polymerase ribozyme fitness (log ratio)
64 | C35U A37G U55G C105G | ≤ -4.2
65 | C35G C95A C99U U102A U111C | ≤ -4.2
66 | C36A G58A A73G C85U | ≤ -4.2
67 | C35G C75G A98G G126C C131G | ≤ -4.2
68 | C35U U104G G133U | ≤ -4.2
69 | A37C A49C C79A G88A C96G C105G | ≤ -4.2
70 | A37C A40C C116U G124U | ≤ -4.2
71 | C35U U56G A66C A106G G117A U134A | ≤ -4.2
72 | C35G U45G C51U A66C U139C | ≤ -4.2
73 | C35G C95A C96U C132G A138C | ≤ -4.2
74 | C35U U77C G84C A89G C118U | ≤ -4.2
75 | C36G G65A G80A U101G A115G | ≤ -4.2
76 | C36A C54U A73G A107G | ≤ -4.2
77 | C36U C79A C87G U127G | ≤ -4.2
78 | C36U A52C U55G G86A | ≤ -4.2
79 | C35U C116A C131G U139A U146G | ≤ -4.2
80 | C35U C51U G81C C85A A137C | ≤ -4.2
81 | C36A A64U C85A C125U | ≤ -4.2
82 | C35U C54U U90G A91U C99U U144G A150U | ≤ -4.2
83 | A37C C51U G58C C95G C118A | -3.66
84 | C36G G59U C76G C95A G133U | ≤ -4.2
